# Variants at the floor of the assay are shown more often than the library holds them.
# B1: TPR 5TU (parent)
# chain: GGAUCUUCUCGAUCUAACAAAAAAGACAAAUCUGCCACAAAGCUUGAGAGCAUCUUCGGAUGCAGAGGCGGCAGCCUUCGGUGGCGCGAUAGCGCCAACGUUCUCAACUAUGACACGCAAAACGCGUGCUCCGUUGAAUGGAGUUUAUCAUG
# Variants of: B1
# Test: polymerase ribozyme fitness, log enrichment relative to wild type (log ratio); higher = more active; in vitro selection for triplet polymerase activity
# In short: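 A single round of triplicate in vitro selection, including frozen incubation at −7 °C, was applied to PCR-built, transcribed mutant libraries of each subunit of a heterodimeric triplet polymerase ribozyme. Illumina sequencing of input and output libraries retained genotypes with ≥10 input reads and ≥1 read per output. Fitness is the base-2 logarithm of genotype enrichment divided by wild-type enrichment, from inverse-variance-weighted replicate averages.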
row,Variant,polymerase ribozyme fitness (log ratio)
1,A22U U31A U53G C79G C95G U130G G141C,≤ -4.2
2,A23C G133A U135C G141A A150C,≤ -4.2
3,A23G G83A G94A C125U A147C,≤ -4.2
4,A23G C54G U56A A142C,≤ -4.2
5,A22U C57U U78A C79U G84C G117C,≤ -4.2
6,A23G A26C G141A C149G,≤ -4.2
7,A23U C54A U56C U139A A142C,≤ -4.2
8,A23G A40C G84A C99G U139G,≤ -4.2
9,A23U A113C U134G,≤ -4.2
10,A23C U33G A49C G84U A106G C114G,≤ -4.2
11,A23G C36G,≤ -4.2
12,A23G U45A G81U C85G C87U U90G C96U C118U,≤ -4.2
13,A22U C35U G67A U127A,≤ -4.2
14,A23C U144C,-4.15
15,A22U C87G C114U U148A,≤ -4.2
16,A23U A28G A29U C69A C125A U146G,≤ -4.2
17,A23C C108G A115G A138U U148C,≤ -4.2
18,A23U C51U C95G,≤ -4.2
19,A22U A52G A73U G88A C118U,≤ -4.2
20,A23G A41U U44A G86C C87U C93U U134A,≤ -4.2
21,A22U U53A G74A C95U U135C,≤ -4.2

row,Variant,polymerase ribozyme fitness (log ratio)
1,A23G A39C G80U C96G U102G C103U C118G,≤ -4.2
2,A23G C51G U53A A60G G84A U104G C116U A121C,≤ -4.2
3,A23G G48U C87G C93U C118U G124C U135G,≤ -4.2
4,A23G C69U G88C A107G U139C,≤ -4.2
5,A23U A52G C76U C79A C103A,≤ -4.2
6,A22U C54A,-0.932
7,A23U C87A,≤ -4.2
8,A22U G58A G59U U82G C95U A97U C114U A115G A142U,≤ -4.2
9,A23G A49U C72U C76G G84C C95U G140A,≤ -4.2
10,A23U C85G A91C C95G C105U A150G,≤ -4.2
11,A23C C32A A47C U78G C95U C96A,≤ -4.2
12,A22U G80C G86U C99G U109G U127G G141C,≤ -4.2
13,A22U A47U C54U U77A U90G U139A G140U G141U C149G,≤ -4.2
14,A23C C54G C87A A91U,≤ -4.2
15,A22U C36U U78C U146C,-3.63
16,A23U A24U U53A G86U G92C G94C C131A U135G,≤ -4.2
17,A22U G48C G59A C76A C85A C116A G143C,≤ -4.2
18,A23U A29U C38A A52G U77G G92A A107U G143C,≤ -4.2
19,A23G G42C G50C U61A C75G C85G A122C G128U,≤ -4.2
20,A22U C57G C79G C96U U146A U148A,≤ -4.2
21,A23G C35U U56A C85A C118U G124U,-4.08

row,Variant,polymerase ribozyme fitness (log ratio)
1,A22U C51G G86U C99U U139C,≤ -4.2
2,A23C G34U G83U C131U,≤ -4.2
3,A23C C51U U55A G83U G133C,≤ -4.2
4,A22U A37U C51U C87A,≤ -4.2
5,A23U C85A,≤ -4.2
6,A23G G50A C57U U90A A120G U148G,≤ -4.2
7,A23U C43A U56A C103A G128A,≤ -4.2
8,A23C G83A,≤ -4.2
9,A22U C79G U135A A138G,≤ -4.2
10,A23G A41G C75A C95U,≤ -4.2
11,A23U A49C U55A A91G U139A U144C,≤ -4.2
12,A23C C38U A39U U82G C87A,≤ -4.2
13,A23U C51G A60C G88U G94U,≤ -4.2
14,A23C C125U C131U G141C,≤ -4.2
15,A23U A52G C76A G84U C116U A122G G141A,≤ -4.2
16,A23U C99G C103U C116G C123U A138G A142U,≤ -4.2
17,A23C A40U G59U G62C G83A U135A U146A,≤ -4.2
18,A23U C35G A66C C76A G88C,≤ -4.2
19,A22U G46U C69A C93A C131A U148A,≤ -4.2
20,A22U C54A A91G,-3.53
21,A23G A39G A41G G42C U61G A73C C76A C93U C95U G100C G124U U127C G152U,≤ -4.2

row,Variant,polymerase ribozyme fitness (log ratio)
1,A23U G48C C69A C87A,≤ -4.2
2,A23U C36U U44A C85A,≤ -4.2
3,A23U A28U A40G C54U C57U U77A C93A G143A,≤ -4.2
4,A23C C32U C76A C125U,≤ -4.2
5,A23G A28G G83U G88A,≤ -4.2
6,A23U A40G C57A A120G U135C,≤ -4.2
7,A23C G58A G62A C87A C116G U135G,≤ -4.2
8,A23U G50A C85G G152U,≤ -4.2
9,A23U G25C U77A G80A C85U,≤ -4.2
10,A23G U33C G58U C76U C96A A119U,≤ -4.2
11,A22U C38A G59A C85U C95A,-0.962
12,A23C G50C G59A C79U G83U A89U C95U C132U A142C,≤ -4.2
13,A23U C85U C93U U134G,≤ -4.2
14,A23U A37G C95U,≤ -4.2
15,A22U A41C A52U G124U,-2.3
16,A23G A47G G88C U90G,≤ -4.2
17,A23C A49C C54A C87U A97G U144G,≤ -4.2
18,A23G A52U G59U G94C U144C,≤ -4.2
19,A23U C85U C116G A120G,≤ -4.2
20,A23C A30U A49G G59U A66U G74U A91G C99A,≤ -4.2

# Reference: the RNAGym collection of RNA variant scans (doi:10.1073/pnas.2313332121)
